# Measured values from PMC4336329 (PLoS ONE, 2015).
# Hit rate of the full screen: of about 310,000 compounds, about 2,200 (0.71%) showed an effect of 50% or more. Effects have a minus sign here. The list shows a part of the results.
# Target: human ether-à-go-go-related gene (hERG) potassium channel (human, UniProt Q12809)
# Experiment: primary screen, population patch clamp on CHO cells stably expressing hERG
# human ether-à-go-go-related gene (hERG) potassium channel, sequence (Q12809 whole entry, looked up): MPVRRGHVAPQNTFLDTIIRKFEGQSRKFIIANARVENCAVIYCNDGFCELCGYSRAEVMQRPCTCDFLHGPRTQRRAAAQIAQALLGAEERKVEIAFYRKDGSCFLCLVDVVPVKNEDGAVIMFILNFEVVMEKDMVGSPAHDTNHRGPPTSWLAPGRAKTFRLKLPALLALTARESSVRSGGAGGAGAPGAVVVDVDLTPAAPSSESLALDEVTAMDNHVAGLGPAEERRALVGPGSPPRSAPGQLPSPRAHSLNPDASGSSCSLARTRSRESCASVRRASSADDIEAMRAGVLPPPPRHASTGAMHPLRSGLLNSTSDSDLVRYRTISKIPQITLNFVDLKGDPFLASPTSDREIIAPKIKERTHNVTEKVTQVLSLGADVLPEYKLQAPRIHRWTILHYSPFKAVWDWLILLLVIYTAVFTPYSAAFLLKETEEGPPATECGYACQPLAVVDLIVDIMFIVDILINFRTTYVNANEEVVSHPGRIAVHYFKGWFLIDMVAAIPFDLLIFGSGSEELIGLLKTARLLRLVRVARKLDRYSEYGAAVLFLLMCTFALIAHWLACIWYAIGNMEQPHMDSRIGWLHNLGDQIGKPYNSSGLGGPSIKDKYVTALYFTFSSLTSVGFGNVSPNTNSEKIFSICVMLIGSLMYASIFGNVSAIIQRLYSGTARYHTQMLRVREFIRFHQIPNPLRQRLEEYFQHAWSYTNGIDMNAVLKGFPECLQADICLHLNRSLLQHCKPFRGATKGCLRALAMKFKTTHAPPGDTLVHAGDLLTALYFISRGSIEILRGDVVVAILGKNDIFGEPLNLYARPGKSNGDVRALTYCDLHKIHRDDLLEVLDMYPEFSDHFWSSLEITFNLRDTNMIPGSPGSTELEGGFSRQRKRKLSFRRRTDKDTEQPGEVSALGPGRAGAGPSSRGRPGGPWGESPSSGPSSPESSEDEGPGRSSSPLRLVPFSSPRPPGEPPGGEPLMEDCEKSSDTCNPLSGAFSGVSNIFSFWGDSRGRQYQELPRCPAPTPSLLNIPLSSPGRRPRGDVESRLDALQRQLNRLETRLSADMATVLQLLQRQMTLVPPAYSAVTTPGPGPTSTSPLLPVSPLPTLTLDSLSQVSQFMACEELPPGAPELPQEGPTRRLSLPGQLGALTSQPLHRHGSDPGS
row,Compound,"hERG current change (%, negative = inhibition) at 1uM [%]"
1,CC(C)c1nc2cc(C(=O)NC(c3cccnc3)C(F)(F)F)ccc2o1 (centres unmarked),1.73
2,C=C1C(=O)[C@@]23[C@H](O)C[C@@H]4C(C)(C)CC[C@H](O)[C@]4(C)[C@@H]2C[C@H](O)[C@@H]1[C@H]3O,7.83
3,Cc1cc(C(=O)N=Nc2c(O)n(C)c3ccccc23)c(C)o1,13.8
4,Cc1cc(-c2nnc(SCC(=O)Nc3ccccc3C(F)(F)F)o2)c(C)n1-c1ccccc1,9.78
5,Cc1ccc(S(=O)OCC(=O)Nc2cc(Cl)ccc2N2CCOCC2)cc1 (centres unmarked),6.44
6,CCOC(=O)COc1cc2c(C(=O)OCC)c(C)oc2cc1Br,17.2
7,COc1cc([N+](=O)[O-])ccc1NC(=O)C[n+]1cccc(C)c1.[Cl-],10.6
8,COc1ccc(-n2ncc(C(=O)N3CCN(c4ccc(F)cc4)CC3)c2C)cc1,0.0985
9,Nc1cc(-c2nn[nH]n2)ccc1F,11.9
10,COCCCNc1nc2nonc2nc1N1CCC(C(C)N2CCOCC2)CC1 (centres unmarked),13.4
11,CCc1ccccc1NC1=NCC(=O)N1Cc1ccccc1,10.6
12,CC1CCc2c(C(=O)Nc3nccs3)csc2C1 (centres unmarked),12.8
13,CC(=O)C1=C(O)C(=O)N(c2nnn(C)n2)C1c1cccs1 (centres unmarked),9.19
14,Cc1ccc(-c2n[nH]c(=O)c3ccccc23)cc1S(=O)(=O)NC(C)(C)C,12.7
15,CC(C)=C1SC(N2CCN(c3ccc(C)c(Cl)c3)CC2)=NC1=O,4.74
16,CS(=O)(=O)NCc1nnc(SCc2ccc(C(F)(F)F)cc2)o1,6.78
17,COc1cccc(C(=O)OC2CCN(C)CC2)c1.Cl,10.3
18,Cc1ccc(NC(=O)C(C)N2CCCC2)cc1Cl.Cl (centres unmarked),-5.23
19,O=C(NNC(=O)c1ccccc1C(F)(F)F)c1csc(N2CCOCC2)n1,16.1
20,CCOC(=O)N1CCN(C(=O)c2ccc3nc(N4CCC(C)CC4)sc3c2)CC1,2.41
21,COc1ccc(/C=C(/C#N)C(=O)Nc2cccc([N+](=O)[O-])c2)cc1C(=O)O,17.3
22,COc1cc(CCC(O)CC(=O)CCc2ccccc2)ccc1O (centres unmarked),-7.37
23,CCOc1cc(C(=O)OCc2ccc(C(=O)OC)o2)cc(Br)c1OC,12.8

row,Compound,"hERG current change (%, negative = inhibition) at 1uM [%]"
1,Cc1ccc(SCC(=O)NC(=O)NCCC(C)C)c(C)c1,4.05
2,Cc1ccc(NC(=O)[C@@H]2CCC(=O)N2C2OC(=O)c3ccccc32)cc1Cl (some centres unmarked),-6.31
3,CC(=O)c1noc(C)c1C(=O)Nc1nccs1,11.6
4,N#CCSc1ncnc2ccccc12,14.4
5,COc1ccccc1NS(=O)(=O)c1cc(C)ccc1C,6.07
6,Cc1nnc(N2C(=O)C(=O)/C(=C(\O)c3ccc4c(c3)CC(C)O4)C2c2ccccc2)s1 (centres unmarked),11.7
7,CCOC(=O)c1c(C)[nH]c(C)c1S(=O)(=O)NC(CC)CN1CCOCC1 (centres unmarked),14.6
8,CC(=O)NC(CCS(C)(=O)=O)C(=O)Nc1ccc(F)cc1Cl (centres unmarked),14.5
9,S=C(NCc1ccccn1)Nc1ccc(Cl)cc1Cl,2.25
10,Cc1c(C(=O)Nc2ccc(Cc3ccncc3)cc2)cccc1[N+](=O)[O-],8.65
11,O=C(CCNC(=O)C1CCN(S(=O)(=O)c2ccccc2)CC1)NCc1ccccc1Cl,4.81
12,CCNc1nc(NCC)nc(N/N=C/c2ccc([N+](=O)[O-])o2)n1,-30.2
13,Cc1ccc(C)c(NC(=O)CSc2nnc(-c3ccccc3C)o2)c1,10.7
14,COc1ccccc1C1CC(c2ccc(C)cc2)Nc2ncnn21 (centres unmarked),3.82
15,Cc1cc(/C=C2\SC(=S)NC2=O)c(C)n1C1CC1,4.92
16,CCOC(=O)c1nn(-c2ccc(F)cc2)cc1O,11.4
17,COc1ccc(-c2cc(C(=O)Nc3c(C)n(C)n(-c4ccccc4)c3=O)c3ccccc3n2)cc1,22.5
18,Cc1c(C)c(C)c(CN2CCCC2)c(C)c1C,0.687
19,Fc1ccc(N/N=C2/CC(c3ccccc3)Oc3ccccc32)c(F)c1 (centres unmarked),11.6
20,O=C(c1ccccc1)C1C(c2ccccc2)C1[N+](=O)[O-] (centres unmarked),6.68
21,COc1ccc(N(C(=O)c2snc(C(N)=O)c2N)C(C(=O)NCc2ccc(F)cc2)c2ccc(C)o2)c(OC)c1 (centres unmarked),10.8
22,CSc1cccc(NC(=O)c2ccccn2)c1,16.5
23,O=C(COc1ccc(Br)cc1)NNC(=O)c1ccc(-n2cncn2)c([N+](=O)[O-])c1,5.16

row,Compound,"hERG current change (%, negative = inhibition) at 1uM [%]"
1,COc1ccc(NC(=O)C(c2ccc(Cl)cc2)C(C)C)cn1 (centres unmarked),3.23
2,CC(=O)c1ccc(S(=O)c2ccccc2)cc1 (centres unmarked),6.16
3,COc1cccc(C(=O)COC(=O)CCC(=O)c2ccccc2)c1,12.9
4,CCc1nc2ccccc2c(=O)n1NC(=O)c1c(O)c2ccccc2n(CC)c1=O,7.06
5,CCOC(=O)C1CCCN(C(=O)c2cn(-c3ccccc3)nc2-c2cccnc2)C1 (centres unmarked),13.6
6,Cc1cc(C(=O)NCC(c2cccs2)N2CCOCC2)ccc1[N+](=O)[O-] (centres unmarked),8.36
7,CC(C)(C)c1cc2nc3c(c(=O)n2[nH]1)CN(Cc1ccccc1)C3=O,11.4
8,Brc1c(-c2ccc3c(c2)OCO3)nc2ncccn12,10.5
9,COC(=O)c1ccc(C2OCC(C)(C)CO2)cc1,1.61
10,COC(=O)c1c(N=CN(C)C)c(C#N)c2n1CCCC2,-4.91
11,COc1cc(C(C)=O)ccc1OCC(O)CN(CCO)Cc1ccccc1 (centres unmarked),2.46
12,COC(=O)c1c(C)n(Cc2ccccc2)c2ccc(O)cc12,15.9
13,Cc1cc(C)c(S(=O)(=O)Nc2ccc(-c3cn4ccccc4n3)cc2)c(C)c1,8.41
14,CS(=O)(=O)N1CCCC(C(=O)Nc2c(F)cccc2F)C1 (centres unmarked),16
15,Cc1cc(C(C)(C)C)oc1C(=O)N(CC(=O)NC1CCCC1)Cc1ccccc1Cl,9.01
16,O=C1NC(c2cccnc2)Nc2sc3c(c21)CCCC3 (centres unmarked),12.7
17,O=C(Cn1cnc2sc(-c3ccccc3)cc2c1=O)NCCc1ccccc1,7.55
18,COc1ccc(NC(=O)COC(C)=O)cc1Cl,9.3
19,COCC(C)n1c(C)cc(C(=O)COc2ccc(C)nc2[N+](=O)[O-])c1C (centres unmarked),21.3
20,N#Cc1c(-c2cccs2)cc(-c2cccnc2)nc1N,8.57
21,O=C(CCS(=O)(=O)c1cc2c(cc1Cl)NC(=O)CO2)NCc1ccccc1,8.93
22,CNc1nc(-c2ccccc2)cc(C)c1S(C)(=O)=O,-6.46
23,CC(=O)Nc1ccc(NC(=O)C(C)Oc2ccccc2F)cc1 (centres unmarked),13.3

row,Compound,"hERG current change (%, negative = inhibition) at 1uM [%]"
1,Clc1cccc(CSc2nnc(-c3c[nH]c4ccccc34)o2)c1,12.2
2,O=C(CSc1ncn[nH]1)N1CCN(c2nnc(-c3ccccc3)c3ccccc23)CC1,4.45
3,COc1ccc(-c2oc3ncn(Cc4ccco4)c(=N)c3c2-c2ccc(OC)cc2)cc1,3.3
4,CCN(CC)CCNc1nc(-n2nc(C)cc2C)nc2sc3c(c12)CC(C)(C)OC3,-13.2
5,Cc1ccc(C(=O)Nc2nnn(C)n2)cc1,10.7
6,Cc1ccc(NS(=O)(=O)c2ccc3c(c2)NC(=O)CO3)cc1Cl,15.5
7,O=C(/C=N/NC(=O)c1ccc(Cl)cc1Cl)c1ccccc1,6.83
8,Nn1c(SCC(=O)Nc2ccccc2)nnc(Cc2ccccc2)c1=O,7.54
9,Cc1cc(Cl)cc(Cl)c1OCCN1CCCC1,-5.68
10,CC(NCc1ccccc1OC1CCCC1)c1ccccc1.Cl (centres unmarked),4.55
11,CC(C)Oc1ccc(/C=N/NC(=O)c2ccc(N(Cc3ccccc3)S(C)(=O)=O)cc2)cc1,8.24
12,CC(=O)OC1CC(n2ccc(NC(=O)c3ccccc3)nc2=O)OC1CO (centres unmarked),7.03
13,Cc1ccc(NC(=S)N(CCCN2CCOCC2)Cc2ccco2)cc1Cl,5.44
14,COc1ccc(C(C)NC(=O)Cc2cccs2)cc1OC (centres unmarked),9.88
15,COc1ccc(CCNC(=O)c2cc3c(C)nccc3[nH]c2=O)cc1OC,1.74
16,Cc1[nH]c2ccccc2c1SCc1nnc(SCc2ccc(Cl)cc2)n1C,9.11
17,COc1ccc(C2NCCC3(O)CCCCC23)c(OC)c1OC (centres unmarked),-11.3
18,O=C(Cn1nnc(-c2ccccc2Cl)n1)N/N=C/c1ccc(-c2cccc(Cl)c2)o1,9.72
19,Cc1cc(-c2ccc(C)c(S(=O)(=O)NCC3CCN(Cc4ccccc4F)CC3)c2)on1,6.98
20,O=C(c1ccc(Cl)cc1[N+](=O)[O-])N1CCN(c2ccccn2)CC1,-5.36
